Assay results: US9345663B2 (priority 2000, dated 2016)

Legend:
[1] = Shelf life and stability of dry and liquid forms; type: physicochemical; settings: dry form
[2] = tested on: Pseudomonas aeruginosa; assay: Susceptibility of tobramycin resistant isolates from Phase II tobramycin trials; settings: isolates with a tobramycin MIC>16 μg/ml
[3] = tested on: Burkholderia cepacia; settings: cited from earlier work
[4] = Solubility; type: physicochemical
[5] = cited from earlier work
[6] = Accelerated stability method, open chain formation; type: physicochemical
[7] = tested on: S. aureus; assay: MIC by broth microdilution, negative control organism; settings: Staphylococcus aureus
[8] = tested on: P. aeruginosa strain PA27853; assay: Killing curves with or without hog gastric mucin or CF sputum
[9] = Viscosity of aztreonam solutions; type: physicochemical
[10] = tested on: P. aeruginosa strain PA27853; assay: MIC for strain PA27853 by standard methods; type: cell-based; settings: Pseudomonas aeruginosa
[11] = intravenous, 2,000 mg (2 g), six hours after administration; cited from earlier work
[12] = Beagle dog 28 day inhalation safety study; type: in vivo
[13] = tested on: Pseudomonas aeruginosa; settings: patients screened from 69 CF centers; cited from earlier work

## C[C@H]1[C@H](NC(=O)/C(=N\OC(C)(C)C(=O)O)c2csc(N)n2)C(=O)N1S(=O)(=O)O.NCCCC[C@H](N)C(=O)O [aztreonam lysinate]
[1]
  shelf life: at least 2 years
[2]
  isolates susceptible: ~75%
[3]
  isolates sensitive to parenteral treatment: 5%

## C[C@H]1[C@H](NC(=O)/C(=N\OC(C)(C)C(=O)O)c2csc(N)n2)C(=O)N1S(=O)(=O)O [beta form]
[4]
  solubility in water: relatively insoluble
[5]; 12 month storage, 5% to 75% relative humidity, −20° C. to 40° C.
  increase in impurity level by TLC method: < 2%
[6]; at 30 days
  open chain: over 2%
[6]; initial
  open chain: 0.9%

## C[C@H]1[C@H](NC(=O)/C(=N\OC(C)(C)C(=O)O)c2csc(N)n2)C(=O)N1S(=O)(=O)O [aztreonam, (Z)-2-[[[(2-amino-4-thiazolyl)[[(2S,3S)-2-methyl-4-oxo-1-sulfo-3-azetidinyl]carbamoyl]methylene]amino]oxy]-2-methylpropionic acid]
[7]
  MIC50: 1020 µg/mL (≈ 2350 µM)
[4]
  maximum concentration that can be dissolved in 1 mL of the solution: 90 mg/mL
[8]; at or above the MIC
  killing of P. aeruginosa: effective killing
[8]; quantities less than the MIC
  growth of P. aeruginosa: Growth of P. aeruginosa occurred
[9]; 75 mg/mL
  Viscosity of aztreonam: 1.48 ± 0.1 mPas
[9]; 90 mg/mL
  Viscosity of aztreonam: 1.7 ± 0.03 mPas
[10]
  MIC: 4 µg/mL (≈ 9.19 µM)
[11]
  level at 6 hours: ~16000 ng/mL
[12]
  necropsy or histological findings: no necropsy or histological findings

## C[C@H]1[C@H](NC(=O)/C(=N\OC(C)(C)C(=O)O)c2csc(N)n2)C(=O)N1S(=O)(=O)O [alpha form]
[5]; 80° C.
  loss after one week of storage: 80%
[5]; room temperature
  loss after one week of storage: approximately 1%
[6]; after 90 days
  open chain: 1.2%
[6]; initial
  open chain: 0.06%

## NC[C@H]1O[C@H](O[C@H]2[C@H](O)[C@@H](O[C@H]3O[C@H](CO)[C@@H](O)[C@H](N)[C@H]3O)[C@H](N)C[C@@H]2N)[C@H](N)C[C@@H]1O [tobramycin]
[13]
  patients with resistant isolates (MIC>16 μg/mL): 21%
[8]; 10% mucin added
  inhibition of antibiotic activity by hog gastric mucin: inhibit the activity

Values after ≈ are worked out from the molar mass of the structure shown. Like-named read-outs stand apart in the source and are kept apart here.
